{"source": "the supplement of paper PMC3334620", "note": "In all, about 33,000 sequences were measured (“E-score (-0.5 to 0.5)”: median about -0.035, highest 2% from about 0.34 on). The list shows a part of the results.", "data": [{"target": "T1, Mot3 (UniProt P54785)", "T1 sequence": "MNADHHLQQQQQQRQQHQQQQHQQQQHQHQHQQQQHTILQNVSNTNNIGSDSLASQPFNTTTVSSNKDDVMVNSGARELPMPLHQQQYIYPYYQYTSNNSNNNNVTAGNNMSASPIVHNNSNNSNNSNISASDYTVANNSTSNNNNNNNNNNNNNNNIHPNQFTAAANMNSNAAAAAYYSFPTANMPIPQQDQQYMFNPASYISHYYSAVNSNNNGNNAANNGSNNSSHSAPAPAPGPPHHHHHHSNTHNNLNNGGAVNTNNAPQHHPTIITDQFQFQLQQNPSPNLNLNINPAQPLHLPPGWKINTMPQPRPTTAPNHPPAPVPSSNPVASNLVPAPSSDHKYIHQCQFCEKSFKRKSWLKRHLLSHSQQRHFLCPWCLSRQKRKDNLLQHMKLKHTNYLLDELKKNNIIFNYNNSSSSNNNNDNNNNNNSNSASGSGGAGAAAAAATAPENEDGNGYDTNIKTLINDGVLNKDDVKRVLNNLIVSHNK", "assay": "PBM E-score (8-mer binding enrichment) (E-score (-0.5 to 0.5)); higher = stronger / more preferred TF binding; most listed sequences are background and not binding sites", "settings": "protein concentration: 200 nM; construct: GST-full length", "summary_of_the_method": "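GST-tagged yeast TFs (full-length or DNA-binding domain) were made by PURExpress in vitro transcription/translation and applied at about 100-200 nM to universal all-10-mer Agilent arrays. The arrays were made double-stranded by primer extension, on fresh or once-stripped slides. Bound protein was detected with fluorescent anti-GST, and scans were normalised with masliner. Each ungapped eight-base word, pooled with its reverse complement, received an E-score (modified Wilcoxon-Mann-Whitney statistic) from the Universal PBM Analysis Suite.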", "values": [{"sequence": "AGGTAGAA", "PBM E-score": -0.0405}, {"sequence": "AAAAGGGC", "PBM E-score": -0.0432}, {"sequence": "GCACGGAA", "PBM E-score": 0.126}, {"sequence": "GCGCATCA", "PBM E-score": -0.158}, {"sequence": "CGAGTTGA", "PBM E-score": -0.144}, {"sequence": "GGACCAGA", "PBM E-score": -0.107}, {"sequence": "GAAACAAC", "PBM E-score": -0.0664}, {"sequence": "ACTTTCTA", "PBM E-score": -0.0375}, {"sequence": "CGAGCTGC", "PBM E-score": -0.215}, {"sequence": "TAAGACCA", "PBM E-score": -0.00635}, {"sequence": "ACATACGG", "PBM E-score": 0.1}, {"sequence": "CTCCACCA", "PBM E-score": -0.249}, {"sequence": "GGTCTAAA", "PBM E-score": -0.127}, {"sequence": "CGTCGGAC", "PBM E-score": -0.226}, {"sequence": "AAGCGACC", "PBM E-score": -0.0653}, {"sequence": "TACAGGGA", "PBM E-score": 0.0536}, {"sequence": "AATGGCAT", "PBM E-score": -0.0515}, {"sequence": "AATACTGA", "PBM E-score": 0.0286}, {"sequence": "GGAGGACA", "PBM E-score": -0.0477}, {"sequence": "ATGCTTCA", "PBM E-score": -0.0616}, {"sequence": "GGGGGCTA", "PBM E-score": -0.346}, {"sequence": "AGAACTGG", "PBM E-score": -0.0526}, {"sequence": "AACGACCA", "PBM E-score": -0.0981}, {"sequence": "CGGGTATA", "PBM E-score": 0.00781}, {"sequence": "AGAGCACT", "PBM E-score": -0.0229}, {"sequence": "AGGGTCGG", "PBM E-score": -0.209}, {"sequence": "CGCAAGTC", "PBM E-score": -0.268}, {"sequence": "AGTGTATC", "PBM E-score": -0.009}, {"sequence": "CCCTTGCG", "PBM E-score": -0.214}, {"sequence": "ATGCGTAA", "PBM E-score": 0.32}, {"sequence": "TATACCCA", "PBM E-score": -0.0838}, {"sequence": "AGTGAGAT", "PBM E-score": -0.201}, {"sequence": "AATTGATC", "PBM E-score": -0.077}, {"sequence": "AGTCCCCG", "PBM E-score": -0.175}, {"sequence": "GCCCACTA", "PBM E-score": -0.0583}, {"sequence": "AGCCTATA", "PBM E-score": 0.259}, {"sequence": "CATAAGGG", "PBM E-score": -0.0326}, {"sequence": "GAAACACC", "PBM E-score": 0.101}, {"sequence": "CCGCTGGC", "PBM E-score": -0.18}, {"sequence": "CCCAGCCG", "PBM E-score": -0.298}, {"sequence": "GTACTTTA", "PBM E-score": 0.154}, {"sequence": "CTGCAACC", "PBM E-score": -0.054}, {"sequence": "AACTGATA", "PBM E-score": -0.136}, {"sequence": "CATTTGAA", "PBM E-score": -0.1}, {"sequence": "CTCTCCGC", "PBM E-score": -0.0335}, {"sequence": "CACTGTCC", "PBM E-score": -0.196}, {"sequence": "GCCGAGCC", "PBM E-score": -0.161}, {"sequence": "ACACTCGA", "PBM E-score": -0.00344}, {"sequence": "CGTGCTGC", "PBM E-score": -0.0648}, {"sequence": "GTTAGTTA", "PBM E-score": 0.187}, {"sequence": "AATAGATG", "PBM E-score": 0.0226}, {"sequence": "AAAAGTTC", "PBM E-score": 0.0652}, {"sequence": "ATTTTCTA", "PBM E-score": 0.0358}, {"sequence": "GGTACCAA", "PBM E-score": -0.0319}, {"sequence": "AAACTCTG", "PBM E-score": 0.135}, {"sequence": "CGGGCACC", "PBM E-score": 0.17}, {"sequence": "AGAGGCGG", "PBM E-score": -0.193}, {"sequence": "ATGACCGA", "PBM E-score": -0.238}, {"sequence": "CTACCCGA", "PBM E-score": 0.0334}, {"sequence": "CGTACTAG", "PBM E-score": -0.0991}, {"sequence": "GGACCTTA", "PBM E-score": -0.106}, {"sequence": "CCCTAGGC", "PBM E-score": 0.0159}, {"sequence": "TAGTGAAA", "PBM E-score": 0.0747}, {"sequence": "ACTAGTGA", "PBM E-score": -0.0148}, {"sequence": "ATTAACCC", "PBM E-score": -0.021}, {"sequence": "TAGAATCA", "PBM E-score": -0.00353}, {"sequence": "CGGGCCAC", "PBM E-score": -0.257}, {"sequence": "CCATCCTA", "PBM E-score": -0.148}, {"sequence": "CCCATGTC", "PBM E-score": 0.0657}, {"sequence": "CTCCCTTA", "PBM E-score": -0.018}, {"sequence": "AATGCGAC", "PBM E-score": -0.00455}, {"sequence": "CACGGGAC", "PBM E-score": -0.155}, {"sequence": "GCCCAAGC", "PBM E-score": -0.141}, {"sequence": "AAAACTTG", "PBM E-score": 0.194}, {"sequence": "AGTAGCGC", "PBM E-score": -0.154}, {"sequence": "GCTTGGAC", "PBM E-score": -0.124}, {"sequence": "GGTCGCCA", "PBM E-score": -0.278}, {"sequence": "GCAGCCGC", "PBM E-score": -0.156}, {"sequence": "CTAAATTA", "PBM E-score": 0.0921}, {"sequence": "CATCACGG", "PBM E-score": -0.0765}, {"sequence": "ACGCGTAG", "PBM E-score": 0.26}, {"sequence": "CTCCATCC", "PBM E-score": -0.196}, {"sequence": "AACAACCA", "PBM E-score": 0.108}, {"sequence": "GGTATGGA", "PBM E-score": -0.183}, {"sequence": "AACTGACC", "PBM E-score": -0.239}, {"sequence": "CGATGTAA", "PBM E-score": 0.33}]}]}
